# Reference: patent US9744222B2, “Peptide for vaccine” (Circassia Limited, priority 2007, dated 2017)
# At least one peptide structure holds a part that was inferred or is arguable (an end, a ring closure or a residue). Some entries repeat one wording, which the source may state once for all of them. Where a SMILES comes first, the peptide text is derived from it.
# Tests used:
# [1] = Precipitation in aqueous solution of the binding assay; format: physicochemical
# Source text: (§1) This is a characteristic of promiscuous HLA-DRB1* binders.
# DQA1*0102/DQB1*0602 = DQA1*0102/DQB1*0602 (Homo sapiens, UniProt P01909+P01920, A157G/A45G/C70R/E118A/E183D/E77G/F83G/G63E/H151Q/H199R/H252R/H253Q/I129T/I235V/I88M/INS77G/K197Q/L117V/L119F/L178F/L71W/L74F/L85Q/L91A/L98M/N214S/P87R/Q116E/Q76K/R102G/R240Q/R75S/R78G/S102Y/S185I/S41F/S97I/T121G/T122I/T172A/T86R/V229M/V68A/V73E/Y34C/Y41F/Y58L); assay: Competitive MHC class II binding assay; conditions: control peptide Human Insulin B 1-15
# Method: as §1
# In addition, to identify lower affinity binders, the assay was also carried out under less stringent conditions. All the Der p binding peptides were seen to have a high ratio when tested against this allotype, showing they were low affinity binders compared to the control peptide. The DQA1*0102/DQB1*0602 binding assay uses a peptide from the B-chain of human insulin which is of lower affinity compared to those used in the DR assays. This dictates that the DQ assay is very sensitive and tends to produce very low ratio values for the strongest binders to this MHC Class II allotype. This sensitivity also accounts for the relatively higher number of DQ binding peptides within the panel screened.
# PBMC's = assay: Cytokine release assay (IL-13, IFN-gamma); format: cell-based, human; conditions: IL-13 or IFN-gamma response greater than 100 pg/ml
# Method: Cytokine secretion profiles from PBMC's are analysed in response to the peptide stimulation using the peptides from Example 3.
# Thus, an individual was considered to have responded to a peptide if cells from that individual yielded a response greater than 100 pg/ml for either […] or IFN-gamma.
# DRB1*1501 = DRB1*1501 (Homo sapiens, UniProt P01903+P01911); assay: Competitive MHC class II binding assay; conditions: control peptide Human myelin basic protein 85-99
# DRB1*1301 = DRB1*1301 (Homo sapiens, UniProt P01903+P01911, A100E/A169T/K41T/L162R/M171V/P40S/Q125H/Q178H/Q39Y/Q99D/R42S/S66N/T262R/W38E/Y61H); assay: Competitive MHC class II binding assay; conditions: control peptide HLA-DQB1*0603 21-36
# [2] = system: human MHC class II allotypes; assay: Competitive MHC class II binding assay, all allotypes; conditions: competition assay, any allotype
# Source text: as §1
# This is of significance as purities were seen to vary from 60-90%. This would have a considerable effect on the ability of a peptide to compete if it is relatively impure. […] Therefore, if purity is taken into consideration, they may in fact have an equivalent affinity to a peptide of a higher purity.
# [3] = lowest concentration at which an insoluble white precipitate is seen in the aqueous solution of the binding assay
# [4] = lowest concentration at which an insoluble white precipitate is seen, value in brackets
Structure (SMILES),"Precipitation in assay [1, 3]","Relative binding, ratio of own IC50 to that of the control peptide, DQA1*0102 QB1*0602 (DQA1*0102/DQB1*0602)","Precipitation in assay [1, 4]",Ranking of peptides by percentage of responders (in words) (PBMC's),"Relative binding, ratio of own IC50 to that of the control peptide, DRB1*1501 (DRB1*1501)","Relative binding, ratio of own IC50 to that of the control peptide, DRB1*1301 (DRB1*1301)",MHC Class II binding (in words) [2]
CC(C)C[C@H](NC(=O)[C@H](CC(=O)O)NC(=O)[C@H](CC(C)C)NC(=O)[C@H](CO)NC(=O)[C@H](CCC(N)=O)NC(=O)[C@H](CC(N)=O)NC(=O)[C@@H](N)CCCNC(=N)N)C(=O)N[C@@H](C)C(=O)N[C@@H](CCC(=O)O)C(=O)N[C@@H](CCC(N)=O)C(=O)N[C@@H](CCC(=O)O)C(=O)N[C@@H](CC(C)C)C(=O)N[C@H](C(=O)N[C@@H](CC(=O)O)C(=O)N[C@@H](CS)C(=O)N[C@@H](C)C(=O)N[C@@H](CO)C(=O)N[C@@H](CCC(N)=O)C(=O)N[C@@H](Cc1c[nH]cn1)C(=O)O)C(C)C [HDM03C] (H-RNQSLDLAEQELVDCASQH-OH; N-terminus and C-terminus assumed),None,0.16,,,,,
CC[C@H](C)[C@H](NC(=O)[C@@H](NC(=O)[C@H](C)NC(=O)[C@@H](NC(=O)[C@H](C)NC(=O)[C@H](CO)NC(=O)[C@H](Cc1c[nH]cn1)NC(=O)[C@@H](NC(=O)[C@H](CCC(N)=O)NC(=O)[C@H](C)NC(=O)[C@H](CC(C)C)NC(=O)[C@H](C)NC(=O)[C@H](CCC(=O)O)NC(=O)[C@@H](N)CCCNC(=N)N)[C@@H](C)O)[C@@H](C)CC)C(C)C)C(=O)O [HDM09A] (H-REALAQTHSAIAVI-OH; N-terminus and C-terminus assumed),10000 µM,,(2.9 mg/ml),next most potent peptides,200,,
CC[C@H](C)[C@H](NC(=O)[C@H](C)NC(=O)[C@H](CS)NC(=O)[C@H](C)NC(=O)[C@H](CC(C)C)NC(=O)[C@@H](NC(=O)CNC(=O)[C@@H](N)CC(=O)O)C(C)C)C(=O)N[C@@H](C)C(=O)N[C@H](C(=O)N[C@@H](Cc1c[nH]cn1)C(=O)N[C@@H](C)C(=O)N[C@@H](CCCCN)C(=O)N[C@H](C(=O)N[C@@H](CCCNC(=N)N)C(=O)O)[C@@H](C)CC)[C@@H](C)O [HDM26A] (H-DGVLACAIATHAKIR-OH; N-terminus and C-terminus assumed),10000 µM,0.61,(1.5 mg/ml),,,,
CC[C@H](C)[C@H](NC(=O)[C@H](CC(N)=O)NC(=O)[C@@H](N)CCCNC(=N)N)C(=O)N[C@@H](CCC(N)=O)C(=O)N[C@H](C(=O)N[C@@H](CCCNC(=N)N)C(=O)NCC(=O)N[C@@H](CC(C)C)C(=O)N[C@@H](CCCCN)C(=O)N[C@@H](CCC(N)=O)C(=O)N[C@@H](CCSC)C(=O)N[C@@H](CCCCN)C(=O)N[C@@H](CCCNC(=N)N)C(=O)N[C@H](C(=O)NCC(=O)O)C(C)C)C(C)C [HDM34] (H-RNIQVRGLKQMKRVG-OH; N-terminus and C-terminus assumed),None,,,,769.23,3.7,
CC(C)[C@H](NC(=O)[C@H](Cc1ccc(O)cc1)NC(=O)[C@@H](N)CCCNC(=N)N)C(=O)N[C@@H](C)C(=O)N[C@@H](CCCNC(=N)N)C(=O)N[C@@H](CCC(=O)O)C(=O)N[C@@H](CCC(N)=O)C(=O)N[C@@H](CO)C(=O)N[C@@H](CS)C(=O)N[C@@H](CCCNC(=N)N)C(=O)N[C@@H](CCCNC(=N)N)C(=O)N1CCC[C@H]1C(=O)N[C@@H](CC(N)=O)C(=O)O [HDM06] (H-RYVAREQSCRRPN-OH; N-terminus and C-terminus assumed),None,0.86,,,,,
CC[C@H](C)[C@H](NC(=O)[C@@H]1CCCN1C(=O)[C@@H](NC(=O)[C@@H](NC(=O)[C@@H](NC(=O)[C@@H](N)CCCNC(=N)N)[C@@H](C)O)C(C)C)[C@@H](C)O)C(=O)N[C@@H](CCCNC(=N)N)C(=O)N[C@@H](CCSC)C(=O)N[C@@H](CCC(N)=O)C(=O)NCC(=O)NCC(=O)N[C@@H](CS)C(=O)NCC(=O)O [HDM02] (H-RTVTPIRMQGGCG-OH; N-terminus and C-terminus assumed),None,0.03,,,80,,
CSCC[C@H](NC(=O)[C@H](CCC(=O)O)NC(=O)[C@H](C)NC(=O)[C@H](CCCNC(=N)N)NC(=O)[C@@H](NC(=O)[C@@H](NC(=O)[C@@H](N)CC(=O)O)[C@@H](C)O)C(C)C)C(=O)N[C@H](C(=O)N[C@@H](CCCCN)C(=O)N[C@H](C(=O)N[C@@H](CC(C)C)C(=O)N[C@@H](C)C(=O)N1CCC[C@H]1C(=O)O)C(C)C)[C@@H](C)O [HDM49] (H-DTVRAEMTKVLAP-OH; N-terminus and C-terminus assumed),None,1.7,,,671.43,,
CC[C@H](C)[C@H](NC(=O)[C@H](CC(N)=O)NC(=O)[C@H](CCCNC(=N)N)NC(=O)[C@H](CCSC)NC(=O)[C@H](CC(=O)O)NC(=O)[C@@H](N)CC(C)C)C(=O)N[C@@H](CCC(N)=O)C(=O)N[C@H](C(=O)N[C@@H](CCCNC(=N)N)C(=O)NCC(=O)N[C@@H](CC(C)C)C(=O)N[C@@H](CCCCN)C(=O)N[C@@H](CCC(N)=O)C(=O)O)C(C)C [HDM33] (H-LDMRNIQVRGLKQ-OH; N-terminus and C-terminus assumed),None,,,,,263.16,
CC[C@H](C)[C@H](N)C(=O)N[C@@H](CC(=O)O)C(=O)N[C@@H](CC(C)C)C(=O)N[C@@H](CCCCN)C(=O)NCC(=O)N[C@@H](CCC(=O)O)C(=O)N[C@@H](CC(C)C)C(=O)N[C@@H](CC(=O)O)C(=O)N[C@@H](CCSC)C(=O)N[C@@H](CCCNC(=N)N)C(=O)N[C@@H](CC(N)=O)C(=O)N[C@H](C(=O)N[C@@H](CCC(N)=O)C(=O)O)[C@@H](C)CC [HDM32] (H-IDLKGELDMRNIQ-OH; N-terminus and C-terminus assumed),50000 µM,,(7.7 mg/ml),,,,low affinity binding
